In US20230192839A1, “ANTIBODIES HAVING CONDITIONAL AFFINITY AND METHODS OF USE THEREOF” (PFIZER INC., priority 2017, published 2023):

B1: P02_B03: anti-CD33 clone with conditional affinity; VH SEQ ID NO: 33, VL SEQ ID NO: 34 (antibody, V domains shown)
VH: QVQLVESGGGLVQAGGSLRLSCAASRRSSRSWAMHWVRQAPGKGLEWVAVISYDGRLKYYADSVKGRFTISRDNAEYLVYLQMNSLRAEDTAVYYCAADQDVGSVGNYYGNGMDVWGQGTLVTVSS
VL: QSVLTQPPSASGTPGQRVTISCSGSSSNIGSNYVNWYQQLPGTAPKLLIYRNNQRPSGVPDRFSGSKSGTSASLAISGLRSEDEADYYCAAWDDNPRWVFGTGTKLTVL
modifications: Synthetic Antibody
B2: P15_F02: anti-EGFR clone with conditional affinity; VH SEQ ID NO: 135, VL SEQ ID NO: 136; also as scFv in CAR (antibody, V domains shown)
VH: QVQLVESGGGLVQAGGSLRLSCAASRRSSRSWAMHWVRQAPGKGLEWVAVISYDGRLKYYADSVKGRFTISRDNAEYLVYLQMNSLRAEDTAVYYCAAARDVDGSGYDTIDVWGQGTLVTVSS
VL: QSVLTQPPSASGTPGQRVTISCSGSSSNIGRNYVYWYQQLPGTAPKLLIYSNNQRPSGVPDRFSGSKSGTSASLAISGLRSEDEADYYCAAWDDSLSGVWVFGTGTKLTVL
modifications: Synthetic Antibody
notes: also as scFv in CAR
B3: P08_D06: anti-EGFR clone with conditional affinity; VH SEQ ID NO: 123, VL SEQ ID NO: 124; also as scFv in CAR (antibody, V domains shown)
VH: QVQLVESGGGLVQAGGSLRLSCAASRRSSRSWAMHWVRQAPGKGLEWVAVISYDGRLKYYADSVKGRFTISRDNAEYLVYLQMNSLRAEDTAVYYCAADDDGDVYAGYSYGGFDYWGQGTLVTVSS
VL: QSVLTQPPSASGTPGQRVTISCSGSSSNIGRNYVYWYQQLPGTAPKLLIYRNDQRPSGVPDRFSGSKSGTSASLAISGLRSEDEADYYCAAWDDSLSGWVFGTGTKLTVL
modifications: Synthetic Antibody
notes: also as scFv in CAR
B4: P01_H04: anti-EGFR clone with conditional affinity; VH SEQ ID NO: 127, VL SEQ ID NO: 128 (antibody, V domains shown)
VH: QVQLVESGGGLVQAGGSLRLSCAASRRSSRSWAMHWVRQAPGKGLEWVAVISYDGRLKYYADSVKGRFTISRDNAEYLVYLQMNSLRAEDTAVYYCAADMDDMLSYYNSFDIWGQGTLVTVSS
VL: QSVLTQPPSASGTPGQRVTISCSGSSSNIGRNYVYWYQQLPGTAPKLLIYRNNQRPSGVPDRFSGSKSGTSASLAISGLRSEDEADYYCAAWDDSLSGWVFGTGTKLTVL
modifications: Synthetic Antibody
B5: P08_E05: anti-EGFR reference clone, less than 2-fold MTX effect; VH SEQ ID NO: 131, VL SEQ ID NO: 132 (antibody, V domains shown)
VH: QVQLVESGGGLVQAGGSLRLSCAASRRSSRSWAMHWVRQAPGKGLEWVAVISYDGRLKYYADSVKGRFTISRDNAEYLVYLQMNSLRAEDTAVYYCAADGKGAAWSEVDEPDVWGQGTLVTVSS
VL: QSVLTQPPSASGTPGQRVTISCSGSSSNIGSNYVYWYQQLPGTAPKLLIYQNNQRPSGVPDRFSGSKSGTSASLAISGLRSEDEADYYCAAWDDSLSGLVFGTGTKLTVL
modifications: Synthetic Antibody

Experiments:
human CD33 = test: Biacore SPR binding kinetics of anti-CD33 scFv-Fc clones with or without 10 µM MTX; conditions: 37° C.
Description: The first 4 rounds of panning used biotinylated CD33 antigen captured on streptavidin or neutravidin coated 96-well plates. […] 1536 clones were randomly chosen from the 4th and 5th round of panning against the CD33 antigen and their binding specificity determined by phage ELISA. Clones that specifically bound to CD33 were sequenced and all unique clones were subjected to a phage competition ELISA to assess their relative affinities to CD33 and sensitivity to MTX by measuring their binding strengths in the presence or absence of 10 µM (micromolar) MTX (i.e. in 0 or 10 µM MTX).
(§1) All binding kinetics analysis was performed on label-free Biacore surface plasmon biosensors (Biacore T200™ from GE Life Sciences) at 37° C. in 10 mM Hepes pH 7.4, 150 mM NaCl, 0.05% Tween-20 (HBST+), with or without 10 µM MTX. The Biacore data were processed in Biacore T200 Evaluation Software, and the data were double-referenced (Myszka, 1999, J Mol Recognit 12(5):279-284) and fit globally to a simple Langmuir with mass transport model to determine the equilibrium dissociation constant, KD, from the ratio of the kinetic rate constants (KD = koff/kon). In some cases the binding of antigen was very low (or not detectable) in the presence of 10 µM MTX and as a result kinetic rate constants could not be accurately determined. In these cases, a KD (or KD limit) was estimated based on the binding response at the highest analyte concentration tested or based on the typical limit of detection for a Biacore T200.

[1] = tested on: human epidermal growth factor receptor (EGFR); test: Biacore SPR binding kinetics of anti-EGFR scFv-Fc clones with or without 10 µM MTX; conditions: 37° C.; for koff, kinetics toward antigen with 0 µM MTX / kon, kinetics toward antigen with 0 µM MTX / koff, kinetics toward antigen with 10 µM MTX / kon, kinetics toward antigen with 10 µM MTX: pH 7.4, scFv-Fc
Procedure: as §1, with “T200. […]” for “T200.”

[2] = 10 µM MTX, pH 7.4, koff/kon, or estimated from binding response / limit of detection for weak interactions, read-out: KD, kinetics toward antigen with 10 µM MTX

| Molecule | koff, kinetics toward antigen with 0 µM MTX (human CD33; 0 µM MTX, pH 7.4, scFv-Fc) [s⁻¹] | kon, kinetics toward antigen with 0 µM MTX (human CD33; 0 µM MTX, pH 7.4, scFv-Fc) [M⁻¹ s⁻¹] | Kd (human CD33; [2]) [nM] | koff, kinetics toward antigen with 0 µM MTX [1] [s⁻¹] | kon, kinetics toward antigen with 0 µM MTX [1] [M⁻¹ s⁻¹] | koff, kinetics toward antigen with 10 µM MTX ([1]; 10 µM MTX) [s⁻¹] | kon, kinetics toward antigen with 10 µM MTX ([1]; 10 µM MTX) [M⁻¹ s⁻¹] | Kd [1, 2] [nM] |
| --- | --- | --- | --- | --- | --- | --- | --- | --- |
| B1 | 0.023 | 140000 | > 340 |  |  |  |  |  |
| B2 |  |  |  | 0.022 | 82000 | 0.13 | 50000 |  |
| B3 |  |  |  | 0.013 | 71000 | 0.033 | 24000 |  |
| B4 |  |  |  | 0.076 | 85000 |  |  | > 1800 |
| B5 |  |  |  | 0.071 | 200000 | 0.073 | 150000 |  |
